# Measurements from the supplement of paper PMC12217912.
# Some of the results follow. Sequences were assembled here from the parent chain. Inactive controls read about 0.05.
# B1: TEV protease; numbered along this chain (parent)
# chain: MGESLFKGPRDYNPISSSICHLTNESDGHTTSLYGIGFGPFIITNKHLFRRNNGTLVVQSLHGVFKVKDTTTLQQHLVDGRDMIIIRMPKDFPPFPQKLKFREPQREERICLVTTNFQTKSMSSMVSDTSCTFPSGDGIFWKHWIQTKDGQCGSPLVSTRDGFIVGIHSASNFTNTNNYFTSVPKNFMELLTNQEAQQWVSGWRLNADSVLWGGHKVFMVKPEEPFQPVKEATQL
# Variants of: B1
# Assay: raw area under fraction-flipped curve 0-4 h after induction (AUC4h, not background-subtracted), DNA-recorder readout of cleavage of the substrate (dimensionless); higher = more cleavage of the substrate by the protease variant
# Details: temperature: 34 °C; time window: 0-4 h after rhamnose induction
# 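Also: Bxb1 expression induced with 0.2% (w/v) L-rhamnose at OD600 near 0.5, cultures sampled hourly, flipped fraction per protease–substrate barcode pair counted by paired-end Illumina sequencing.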
Variant,area with substrate ECLYFQS,area with substrate EDLYFQS,area with substrate EGLYFQS,area with substrate EILYFQS,area with substrate EKLYFQS,area with substrate EQLYFQS,area with substrate ESLYFQS,area with substrate ETLYFQS,area with substrate EVLYFQS,area with substrate EYLYFQS,area with substrate EELYFQS,area with substrate EFLYFQS,area with substrate EHLYFQS,area with substrate ELLYFQS,area with substrate EMLYFQS,area with substrate EPLYFQS,area with substrate ERLYFQS,area with substrate EWLYFQS
M88Q,0.156,0.142,0.0867,0.122,0.107,0.0926,0.109,0.151,0.138,0.0722,–,–,–,–,–,–,–,–
K216R,–,0.121,–,–,–,–,–,–,–,–,–,–,–,–,–,–,–,–
C152I,0.0532,0.062,0.0541,0.0481,0.0527,0.0836,0.0609,–,0.041,0.0485,0.0649,0.0766,0.0472,0.0465,0.0795,0.0484,0.0516,0.0559
C152F,0.055,0.087,–,0.0695,0.0492,0.0504,0.062,0.0487,0.0706,0.0388,0.0567,0.0631,0.0633,0.057,0.0513,–,0.0696,0.0588
H168K,0.0371,0.0655,–,0.0617,0.114,0.0682,0.0494,–,0.0619,0.0527,–,–,0.0649,0.0604,–,–,–,0.0517
T72R,–,0.139,–,0.12,0.111,0.0976,0.091,–,0.0863,0.134,–,0.108,–,–,0.113,0.0675,0.14,0.131
T72A,0.0618,–,–,0.108,0.0904,0.11,0.109,–,–,–,–,–,0.1,0.0846,–,0.125,–,0.0979
T72C,0.0653,–,0.11,–,0.115,0.112,0.117,–,0.101,–,0.128,–,0.113,0.0668,0.102,–,–,0.0792
R160Y,0.106,–,0.0848,0.102,0.06,0.0907,0.109,–,0.0737,–,–,0.0949,–,0.117,0.109,0.106,–,–
S16N,–,0.134,0.0822,0.128,0.0965,–,0.113,–,0.0804,0.108,0.132,–,0.106,–,–,0.111,0.103,0.0867
S16G,0.114,0.102,0.0985,0.097,–,–,0.122,0.121,–,0.121,0.109,–,–,0.108,–,0.121,–,0.108
L48K,0.0559,–,0.0541,0.0789,0.0669,–,0.0616,–,0.0557,–,0.0639,0.0665,0.0781,–,–,0.045,–,0.0511
L48R,0.0531,0.0572,0.0657,0.0646,0.0702,0.052,0.0541,0.0779,0.0511,–,0.0419,0.0447,0.0671,0.0842,–,0.0632,–,0.0524
L48G,0.0753,0.078,0.0765,0.051,0.0694,0.0717,0.0634,–,0.0693,0.0662,–,–,0.0715,0.0657,–,0.0741,0.0875,0.0699
L48M,–,0.142,0.0815,0.106,0.0928,0.0814,0.114,–,0.0832,0.115,–,–,–,–,0.0671,–,0.127,–
A232V,–,0.151,–,–,–,–,0.117,–,0.0815,–,–,–,–,–,–,–,0.115,0.0991

Variant,area with substrate ECLYFQS,area with substrate EDLYFQS,area with substrate EGLYFQS,area with substrate EILYFQS,area with substrate EKLYFQS,area with substrate EQLYFQS,area with substrate ESLYFQS,area with substrate ETLYFQS,area with substrate EVLYFQS,area with substrate EYLYFQS,area with substrate EELYFQS,area with substrate EFLYFQS,area with substrate EHLYFQS,area with substrate ELLYFQS,area with substrate EMLYFQS,area with substrate EPLYFQS,area with substrate ERLYFQS,area with substrate EWLYFQS
A232G,0.123,0.137,0.0757,–,0.101,0.188,0.174,–,–,0.0641,0.139,–,–,–,–,–,0.13,0.113
D128L,–,0.154,0.119,0.102,0.173,0.178,0.143,0.146,0.112,0.119,–,–,–,0.122,–,–,0.12,0.177
T176R,–,0.106,0.0071,0.0716,0.071,0.0572,0.0787,–,0.0606,0.0743,0.0807,0.09,–,–,–,–,–,–
K120W,0.101,–,–,0.137,0.0912,0.138,0.114,0.118,–,0.0865,–,0.101,0.112,0.0861,0.109,–,–,0.116
K120H,0.13,0.134,–,0.0835,–,0.1,0.107,–,0.123,0.128,0.152,0.116,0.12,–,0.186,–,–,0.0849
S32I,0.0962,0.141,0.0514,–,0.121,0.105,0.115,–,–,–,0.16,–,0.13,0.0886,0.103,0.11,0.106,0.0987
S32Y,0.107,0.132,0.0956,0.0833,0.0917,0.0858,0.0978,0.12,0.0883,0.114,0.0832,–,0.102,0.0958,0.102,0.122,0.0671,0.0871
L56C,–,0.0818,0.0727,0.0991,0.104,0.101,0.0881,0.114,0.0791,–,0.128,0.0756,0.0894,–,–,0.0841,–,–
L56Q,–,0.0432,–,0.0433,0.0184,0.045,0.0391,–,0.05,0.0593,0.0587,–,–,0.0322,0.0208,–,0.101,–
T192H,0.0958,0.134,0.0812,–,0.0987,0.121,0.117,–,–,0.09,–,–,0.0971,–,–,–,0.113,–
T192V,–,0.0928,–,0.128,0.0233,0.108,0.0915,–,0.0882,–,0.0734,–,–,–,0.115,–,–,0.102
L112Q,–,0.091,0.0967,0.0694,0.0794,0.0915,0.0632,0.0802,0.0759,–,0.101,–,0.0909,–,–,–,0.0837,0.0936
P96F,0.11,–,–,–,0.0563,0.106,0.0978,–,–,–,0.141,0.0987,–,0.0609,0.111,–,0.103,0.0795
P96L,0.0957,–,0.113,0.0985,–,–,0.112,–,0.099,–,0.0756,–,–,–,–,–,–,–
G136N,–,0.121,–,0.0797,–,–,0.118,0.133,0.0907,0.114,–,–,0.116,0.106,0.117,0.115,0.116,0.101
